The other results are listed elsewhere or left out.
T1: UNK ZnF1-3 (human, UniProt Q9C0B0 31-174)
T1 sequence: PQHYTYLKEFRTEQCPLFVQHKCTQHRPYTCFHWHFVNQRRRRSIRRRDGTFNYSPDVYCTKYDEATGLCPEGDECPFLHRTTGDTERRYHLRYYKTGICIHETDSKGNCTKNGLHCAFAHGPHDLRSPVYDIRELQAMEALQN

B1: chr1:225611761:225611762:-_ENSG00000143815_ENST00000272163|hu_mus|hu_hu_hu_mus_True|88_108 (ssRNA)
RNA: GGGAGUUCUACAGUCCGACGAUCCCAGGCCAUCGACCUCUGACCACUUCACCAUCGACAAACUUCCUACUUGGCAUUUUCUAAAAUUAGUCUGGCCGCGCUCCGGCGGGAACUCCAGCCACUCCAGGACAGUCACCAGCAGCCCAACAGAGGAUUGAGCAUCA
B2: chr10:33190432:33190433:-_ENSG00000150093_ENST00000302278|hu_mus|hu_hu_hu_mus_True|1_108 (ssRNA)
RNA: GGGAGUUCUACAGUCCGACGAUCUACAUUUUCAAAACCUGCAUGUGAAUAAAACCCUGGCCACAGAGCCCCAAAACUACCCUACUGUGACUAAGAUGCUGCUGCUGUGAGCUUGGUGUUGCAAAAUCCGCCUGAGUCAGUACUCAACAGAGGAUUGAGCAUCA
B3: chr1:43162399:43162400:+_ENSG00000065978_ENST00000321358|hu_mus|FALSE|FALSE (ssRNA)
RNA: GGGAGUUCUACAGUCCGACGAUCAUUCUGGUAAUUUUGCUGGUAAUUGCGUGGAGGACCCCUACGACGUGGAUAGCGUCUAUAAUGGUUACGGUCUGCUGCGUAUUUACUGCCUUGAACUGGAACUCCACCAGGGCCUGUAACCAACAGAGGAUUGAGCAUCA
B4: chr14:35777207:35777208:+_ENSG00000100902_ENST00000261479|hu_mus|FALSE|FALSE (ssRNA)
RNA: GGGAGUUCUACAGUCCGACGAUCUUUGUCGGGUACUUUCUUCUGUGUGACAAUAACUGCACAGUCCUUUCCUCUGACAGCAACAGAUGUAAGUCCACCCUGGUUAAUAGCCUUAAAAGCAUAUUCUACUUGGUAGAGUCGGCCCAACAGAGGAUUGAGCAUCA
B5: chr3:176768308:176768309:-_ENSG00000177565_ENST00000430069|hu_hu|motif|central (ssRNA)
RNA: GGGAGUUCUACAGUCCGACGAUCACUAAGAUUCCAUAUUCUUGCUGUUGAGUCUCCAGACCCUGAUGCUAGGAGAUCACGGACAGGGUUCCAGGCACAGAUAAAAACUUCAGAUUCAUGGCCCCGCAACACAACAGCUUUAUUCAACAGAGGAUUGAGCAUCA
B6: chr11:4749296:4749297:-_ENSMUSG00000009073_ENSMUST00000109910|mus_hu|FALSE|FALSE (ssRNA)
RNA: GGGAGUUCUACAGUCCGACGAUCGCGACCCGGCACUCCGGGAUUCGGGCCGGAGAUGCCGGGGACGCCUCGGGACGGGACCCCUAGACGGCAGCGGCCCAGACUCCGCGCGCCUCUCAGCGGCCGACUAGGGUCACGGGGCCGCAACAGAGGAUUGAGCAUCA
B7: chr9:95050471:95050472:-_ENSG00000196305_ENST00000443024|hu_hu|FALSE|FALSE (ssRNA)
RNA: GGGAGUUCUACAGUCCGACGAUCAUCCCAUCCAAAUCUUCUGUCAACAUGAAACCCACUCUGGUGAGCAUAUCUUGUAACUAUAUCUUUAAUUGUACCCGCAAGUAUAUGUCCAUAGUGAGGCAGUCCAGUUGCAAAAGGAGGCAACAGAGGAUUGAGCAUCA
B8: chr16:20679341:20679342:+_ENSMUSG00000045983_ENSMUST00000044783|mus_hu|motif|central (ssRNA)
RNA: GGGAGUUCUACAGUCCGACGAUCGACUGGGGAUGGUGAUGGGGUCGGAGAAGGCGACGAAGGCUGGGAUUCUGAAGGGCGGUGCUCUGGGCCAGGCAGCCCUGGCCGGUCAGCAAUGAUUGCUCCCUGUGACCGGUCAUCUGGCAACAGAGGAUUGAGCAUCA
B9: 226576444_226578218_713_3pUTR_ENSG00000143799_ENST00000366794|human|control|control (ssRNA)
RNA: GGGAGUUCUACAGUCCGACGAUCCCUUUUCUCUUUCCUUCACUCUUGACUCCUGGGAGCUGCUUCUUCAGGGCUUCUUUAUCCUCUGUAGCAAGGAGGCUGAAGCCCUUGAGCUGACUCGCACUGUACUCGGGCCGGAAACCCCAACAGAGGAUUGAGCAUCA
B10: 4614467_4615035_692_5pUTR_ENSMUSG00000045045_ENSMUST00000113822|mouse|control|control (ssRNA)
RNA: GGGAGUUCUACAGUCCGACGAUCCACUGGCCAGCAGCAGCAAUAGGAGCGGCGGGGCCAUGGUGAGUGCCCUGGUGUCCGUCGCUCAGGGGGCGCGGGCUGGCCUCCCCGCGGACCCAGCCGGCCCCUGCCGACUCCAGGCCGCAACAGAGGAUUGAGCAUCA
B11: chr11:10819154:10819155:-_ENSG00000110321_ENST00000525681|hu_hu|motif|central (ssRNA)
RNA: GGGAGUUCUACAGUCCGACGAUCCUUAUGAUGUAAUUAUUGCAUGCUGCUAAUAUACUAUCUAAACAUUAAAGAUACUCCGGAAAUAUUUGAUGGUAGACUAUGAUUAAGACAUUACACUACAAAAAAACCUUAUGCAGAAGGCAACAGAGGAUUGAGCAUCA
B12: chr2:149803492:149803493:+_ENSG00000168280_ENST00000414838|hu_mus|FALSE|FALSE (ssRNA)
RNA: GGGAGUUCUACAGUCCGACGAUCGGUUUUGCUGACCUUUUCACUCCCAGCCAAAUCAACCAAAUACAGCUUCCCGCUGAGUUUUUUUUCAGUCUCCACAUUCUCUUGCUUAAUGUUAAUCAGGAAGAUACUGUGACUCCUAGACAACAGAGGAUUGAGCAUCA
B13: chr8:141525804:141525805:+_ENSG00000104472_ENST00000220913|hu_hu|FALSE|FALSE (ssRNA)
RNA: GGGAGUUCUACAGUCCGACGAUCGUAGAAAAAUAUCUGAACAGUCAACUUUUCUUAAGACAAAAAUUCAAAUGUAACAUACUACCUAAACUAUAAAUUUAGCUAAAACUGAAUCGAGCUGUUUAUAAGAACUGAUUCCAAAAUCAACAGAGGAUUGAGCAUCA
B14: chr3:179287964:179287965:+_ENSG00000136518_ENST00000429709|hu_hu|hu_hu_hu_mus_True|1_8 (ssRNA)
RNA: GGGAGUUCUACAGUCCGACGAUCCUUGAGUGGUGAGAUGGCCUCCAUGUUCUCCCUGGGCACGCGGAGGGCAUUGGUGUCUAUGUAGUAGGUGGGCCCGCCCUGCUUGCCUUUGUCACCAUCAAUCUCCAUUAAUGUGCUUCCCAACAGAGGAUUGAGCAUCA
B15: chr3:102833055:102833056:+_ENSMUSG00000068823_ENSMUST00000029446|mus_hu|FALSE|FALSE (ssRNA)
RNA: GGGAGUUCUACAGUCCGACGAUCUUCAGUAGUAUUUGCUGAUUCUUCUUUUUCAGCACACGUUUCAAAGGAUGAAAGUUGCUAGUAUUAAAAAAAAGAGCGAGAGAAAAUGAUCUACCAAGCUAAUAAAGAAUACAACUGCUGCAACAGAGGAUUGAGCAUCA
B16: chr13:40293908:40293909:+_ENSG00000133103_ENST00000455146|hu_hu|FALSE|FALSE (ssRNA)
RNA: GGGAGUUCUACAGUCCGACGAUCUGCUUCGAUCUGAAACUGUAGCAUUUCCAGACGUCUGUCAGUGAAUUCAAAUAGAGCUAAUGUUGUCUUCAUCAUAUAUAGUGAAUUGACCAUGAAAGUGGCCAUGUCAGCUGUGCCUAACAACAGAGGAUUGAGCAUCA
B17: chr6:86333760:86333761:-_ENSG00000135316_ENST00000355238|hu_mus|hu_hu_hu_mus_True|28_28 (ssRNA)
RNA: GGGAGUUCUACAGUCCGACGAUCUUCCUCAAGAAUCUGCUCCUUGGUUUUACUCUUAGGAAUCGAGCCCACAAAAAGCCUAUUGUUGGCAACUGAGAUGCAGACACCAAUAUGUUUCCCGGAACGAAUUUCAUGAUUAUUAUACAACAGAGGAUUGAGCAUCA
B18: 79205409_79207752_2771_CDS_ENSMUSG00000039414_ENSMUST00000097281|mouse|control|control (ssRNA)
RNA: GGGAGUUCUACAGUCCGACGAUCACCAGUCCUGGACACGACAUCUCGAGCUGACUUCAACUUGUCAAAGCUGUAUUGGGCCAUUCGGGCAAUGAAAGAGGCUUCUCCCACCACCUGAGCCAUUCUUCCAAGGGCUUCCCCUGCCAACAGAGGAUUGAGCAUCA
B19: chr15:72338896:72338897:-_ENSG00000066933_ENST00000356056|hu_hu|FALSE|FALSE (ssRNA)
RNA: GGGAGUUCUACAGUCCGACGAUCGAUAUAUCCGUAAUGUAUGUUCAUUAUCUUCAAAGCGUCGUCUUCCUCCAUCAUUUAUAUUCAUAUUGGAUCCUGUCCCAUCAGCAUGGAUAGUAUAUGUUCAAAGUCGUGCAAACCAUUCAACAGAGGAUUGAGCAUCA
B20: chr1:63024871:63024872:-_ENSG00000116641_ENST00000251157|hu_hu|FALSE|FALSE (ssRNA)
RNA: GGGAGUUCUACAGUCCGACGAUCGUCCCCAAUUCGGACUGGGAACAGGUGUUCAUCCAGAGCAUUGACCAGAGCAAAAAAUUUGUCAAGAUAAGGAUCUUGUGUAUGGAUAGACGAAACAGCAACAACUUCAACAUUAAAAACCAACAGAGGAUUGAGCAUCA
B21: chr4:144460044:144460045:+_ENSG00000153147_ENST00000283131|hu_hu|FALSE|FALSE (ssRNA)
RNA: GGGAGUUCUACAGUCCGACGAUCUCGGUCCAUAGCCUGAAGAUCUACUUGGGGAUUCCAAUCAGAAUCAUACAAAAUUACUACAUCAGCAGUCGCAAGAUUGAUGCCAAGACCACCAGCACGCGUGCUUAACAUGAAAACAAACAACAGAGGAUUGAGCAUCA
B22: chr12:42180722:42180723:-_ENSMUSG00000036295_ENSMUST00000043884|mus_hu|mus_mus_mus_hu_True|18_48 (ssRNA)
RNA: GGGAGUUCUACAGUCCGACGAUCCUGUAGGAGAAGAAUCUGUGUGUUAGCUGGCAAUCUGGCUGGGAAAGUUAAAAGACCUAAAUCAUUACAGUCCACUGUAGAUGCUUCCAUAUAGAUGGAUCUCGGUGUAAACCAAGGCCUCAACAGAGGAUUGAGCAUCA

molecular target: T1, UNK ZnF1-3; assay: nsRBNS (natural sequence RNA bind-n-seq); RBNS binding buffer (assumed for nsRBNS): 25 mM Tris pH 7.5, 150 mM KCl, 3 mM MgCl2, 0.01% Triton X-100, 500 ug/ml BSA, 20 U/ml SUPERase-In, 4 C; UNK is unkempt and MSI1 is Musashi-1; names of the RNAs are library labels; protein concentration not given here; high values mean tight binding

Binder | binding signal [enrichment R]
B1 | 1.36
B2 | 1.2
B3 | 0.62
B4 | 0.812
B5 | 1.13
B6 | 0.284
B7 | 1.13
B8 | 0.931
B9 | 0.63
B10 | 0.84
B11 | 1.08
B12 | 0.719
B13 | 0.907
B14 | 0.627
B15 | 1.25
B16 | 1.07
B17 | 1.3
B18 | 0.86
B19 | 1.09
B20 | 1.94
B21 | 1.41
B22 | 0.961

Reference: article PMC12136788
